The results in this text go back to PubChem BioAssay (NCI).

In this test the test system is NCI-H322M lung. Briefly: NCI anticancer screen, dose series, 48 h.

SMILES strings stand for the structures. Where “and” joins values, the source holds several entries; their conditions need not be identical. Equal values may be shown once.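 All cell lines were grown in 96-well plates and treated with compound for 48 hours. Here, GI50 denotes the concentration required for 50% inhibition of growth. TGI marks complete inhibition of growth.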

As to `CN(C)CCN1C(=O)c2cccc3cc(N)cc(c23)C1=O`, the TGI is 29.8 µM and 20.5 µM.
On the same count and under the same terms, in the case of `CN(C)N1C(=C(C#N)C#N)C(c2ccccc2)CC1C#N` (configuration not stated) it was more than 100 µM; in that of `COc1cc(OC)c(-n2[nH]c(=O)n(C)c2=O)c(OC)c1`, more than 100 µM; in that of `NCC(=O)N[C@H]1c2ccsc2/C(=N/O)[C@H]1O`, more than 100 µM.
Consider `Oc1ccc(CCNc2nc3ccccc3c3[nH]c4ccccc4c23)cc1O`, for which the GI50 is 4.03 µM and the TGI was found to be 15.1 µM.
As for `CC[C@@H]1C(=O)N(C)c2cnc(Nc3ccc(C(=O)NC4CCC(N5CCN(CC6CC6)CC5)CC4)cc3OC)nc2N1C(C)C` (some centres not stated), the GI50 is 0.0425 µM and 0.0454 µM; the TGI is > 10 µM and 9.7 µM.
In turn, `CCN(CC)CC(C(=O)Nc1c(C)cccc1C)/C(C)=N\NC(=S)NN` (configuration not stated) registered a TGI of more than 100 µM.
`C=C1C(=O)O[C@@H]2C[C@@]3(C)CCC[C@H](C)C3=C[C@H]12` (tested in a mixture with another compound) displayed a TGI of 21.3 µM.
Same read-out and setting: to `O=C1O/C(=C(\Br)c2ccc([N+](=O)[O-])cc2)c2ccccc21` belongs more than 100 µM; to `CCN(CC)c1c(-c2c(OC(C)C)c(=O)c2=O)c(=O)n2ccsc2c1OC(C)=O`, more than 100 µM; to `CN(C)CC1CCC/C(=C\c2ccc(Cl)c(Cl)c2)C1=O` (configuration not stated), 28.9 µM.
In turn, `O=C(O)c1c2c(c(O)c3c1CN(C1CCCCC1)CO3)OCN(C1CCCCC1)C2` came in with a TGI of more than 100 µM.
Turning to `CCCCCCCCCCCC1=NC(C)(C)CN1C(C)C`, the GI50 was 5.44 µM and the TGI came to 18.4 µM.
Regarding `COc1ccccc1C1C(C#N)=C(N)SC(N)=C1C#N`, the GI50 is more than 100 µM and the TGI is more than 100 µM.
For the compound `Cn1c2ccccc2n2c(=O)c(-c3ccc(Cl)cc3)nnc12`, the TGI is more than 100 µM.
The same measure, in the same setting: to `CC(C)(C)OC(=O)C1C(=O)NC(=O)CC1C(OCc1ccccc1)C(OCc1ccccc1)C(COCc1ccccc1)OCc1ccccc1` (configuration not stated) belongs more than 100 µM; to `CCOP(=O)(OCC)C(C(=O)OC)C(=O)C(=O)Nc1cccc([N+](=O)[O-])c1` (configuration not stated), more than 100 µM.
On the same count and under the same terms, to `CS(=O)(=O)N(CCC#N)c1ccc(/C=C2\N=C(c3ccccc3Cl)OC2=O)cc1` belongs more than 100 µM; to `Cc1c2ccccc2c(=O)n2c(-c3ccccn3)cccc12`, more than 100 µM.
On to `COc1cccc2c1C(=O)c1c(O)c3c(c(O)c1C2=O)C[C@@](O)(/C(C)=N/NC(=O)c1cccc([N+](=O)[O-])c1)C[C@@H]3OC1CC(N)C(O)C(C)O1` (some centres not stated), for which the GI50 was 1.21 µM and the TGI amounted to 14.5 µM.
`Cc1cccc(-c2cc(=O)c3cccnc3[nH]2)c1` came in with a TGI of more than 100 µM.
As for `CN1CCN(CCCOC(=O)c2c3c(n4ccccc24)C(=O)c2ncccc2C3=O)CC1`, the GI50 is less than 0.02 µM and the TGI turned out to be 5.34 µM.
Consider `O=C(Nc1ccc(Cl)cc1)c1cc(S(=O)(=O)Nc2nc3ncccc3[nH]2)c(SSc2cc(Cl)c(C(=O)Nc3ccc(Cl)cc3)cc2S(=O)(=O)Nc2nc3ncccc3[nH]2)cc1Cl`, for which the TGI was more than 100 µM.
On the same count and under the same terms, in the case of `NC(=O)N/N=C(\Cc1cc(=O)oc2cc(O)ccc12)C(=O)Nc1ccccc1C(N)=O` it was more than 100 µM; in that of `CCOC(=O)CCCN`, more than 100 µM; in that of `CCN1CC2=C(OC(N)=C(C#N)C2c2ccc(Cl)cc2)/C(=C/c2ccc(Cl)cc2)C1` (configuration not stated), more than 100 µM.
Regarding `CCOC(=O)c1sc2nc(=S)[nH]c(NC(N)=S)c2c1C`, the GI50 was 19.9 µM and the TGI came out at 51.5 µM.
On to `Clc1ccc2c(NC3CCC(NC4CCCCC4)CC3)ccnc2c1` (configuration not stated), for which the GI50 is 15 µM and the TGI stood at 41.8 µM.
Compound `CC1=NC2(C(=O)O)C3(C(=O)O)N=C(C)OC3(C(F)(F)F)C2(C(F)(F)F)O1` (configuration not stated) came in with a TGI of more than 100 µM.
In the case of `CCn1c(-c2nonc2N)nc2cnc(Oc3cccc(NC(=O)c4ccc(OCCN5CCOCC5)cc4)c3)cc21`, the GI50 is 1.33 µM and the TGI was more than 25 µM.
In the case of `CC(C)(Sc1cc(C(C)(C)C)c(O)c(C(C)(C)C)c1)Sc1cc(C(C)(C)C)c(O)c(C(C)(C)C)c1`, the TGI was more than 100 µM.
Same read-out and setting: to `CC(C)OC(=O)Nc1c([N+](=O)[O-])cc(C(F)(F)F)cc1[N+](=O)[O-]` belongs more than 100 µM.
Turning to `COc1cccc(C2CC(C)(O)Oc3cc4c(cc32)OCO4)c1` (configuration not stated), the TGI is more than 100 µM.
`CCCN1CCC(Oc2cc(Nc3nc(Nc4cccc(F)c4C(N)=O)c4cc[nH]c4n3)c(OC)cc2Cl)CC1`: the GI50 was 3.77 µM and the TGI amounted to 7.55 µM.
`O=C(O)c1ccccc1NS(=O)(=O)c1ccc(Cl)cc1` returned a TGI of more than 100 µM.
Take `COC1C(OC(=O)/C=C/C=C/C=C/C=C/C(=O)O)CCC2(CO2)C1C1(C)OC1CC=C(C)C` (configuration not stated): the GI50 is 0.541 µM and the TGI was more than 100 µM.
The compound `CC1COS(=O)N1c1ccccc1` (configuration not stated) displayed a TGI of more than 100 µM.
Same read-out and setting: in the case of `C#CCOC(=O)C=[N+]=[N-]` it was more than 10 µM; in that of `COC(=O)C1=C(C(=O)OC)C23CC4CCC2(C(=O)C1O3)C4(C)C` (configuration not stated), more than 100 µM; in that of `CN(N=O)C(=O)NC(CCCCNC(=O)OCc1ccccc1)C(=O)OCc1ccccc1` (configuration not stated), more than 100 µM.
On to `CCOc1cc(/C=C/C(=O)CC(=O)/C=C/c2ccc(OC(=O)CNc3nc4ccc(OC)cc4s3)c(OCC)c2)ccc1OC(=O)CNc1nc2ccc(OC)cc2s1`, for which the GI50 is 13.9 µM and the TGI was 27.7 µM.
`CCOC(=O)c1nc(SC)sc1NC(=O)c1ccc(OC)cc1` returned a TGI of more than 100 µM.
Turning to `Fc1ccc(F)c(C=NC23CC4CC(CC(C4)C2)C3)c1`, the TGI was more than 10 µM.
`c1ccc(C/C(=N\Nc2nc3ccccc3[nH]2)c2ccccn2)cc1` came in with a TGI of 0.954 µM.
On to `c1ccc(CCCN2C3CCC2CN(CCOC(c2ccccc2)c2ccccc2)C3)cc1`, for which the TGI was determined as 25.3 µM.
Same read-out and setting: to `Cc1cccc(-c2nc(=S)[nH][nH]2)c1` belongs more than 100 µM.
On to `Cc1ccc(NC(=O)c2ccoc2)cc1-c1ccc(C(=O)NCC2CC2)cc1`, for which the GI50 was more than 25 µM and the TGI was more than 25 µM.
Compound `O=C1CN=C(c2ccccc2)c2ccncc2N1` came in with a TGI of more than 100 µM.
As for `CCN(CC)C1=Nc2ccccc2-n2ccnc2C1`, the TGI was more than 100 µM.
As to `O=C(O)CSC1=NCCN1`, the TGI was more than 100 µM.
For `O=c1[nH]c2c(C(F)(F)F)c(Cl)c(-c3ccccc3)nc2o1`, the TGI was determined as 40.4 µM.
The same measure, in the same setting: to `COc1ccc(OC)c([N+](=O)[O-])c1-c1nc2sc(Cl)cn2c1/C=N/N=C(N)N` belongs 39.5 µM; to `COc1ccc(C(O)C(c2ccc(OCc3ccccc3)cc2)c2ccc(OCc3ccccc3)cc2)cc1` (configuration not stated), more than 100 µM.
Take `O=C1c2ccccc2C(=O)N1C/C=N/NS(=O)(=O)c1cccc([N+](=O)[O-])c1`: the TGI was more than 100 µM.
With `COC(=O)/C(=C(/C)c1ccco1)P(=O)(OC)OC`, the TGI is more than 100 µM.
Turning to `C[C@]12CC[C@H]3[C@@H](CC=C4C[C@@H](N5CCCC5)CC[C@@]43C)[C@@H]1C/C(=C\c1ccc([N+](=O)[O-])cc1)[C@@H]2O`, the TGI turned out to be 37.1 µM.
In turn, `C[C@]12C(=O)OC[C@H](c3ccccc3)N1C(=O)N(Cc1ccccc1)[C@@H]2CO` came in with a TGI of more than 100 µM.
Still for that read-out and setting: to `CC1OC1C(=O)P(=O)(O)O` (configuration not stated) belongs more than 100 µM.
`Cc1cc2c3c(c1)S(=O)(=O)c1cc(Cl)ccc1N3CCC2` showed a TGI of more than 100 µM.
`CCOC(=O)N1CCC2(CC1)C[C@](Sc1ccccc1)(C(C)=O)[C@H](C)O2` returned a TGI of more than 100 µM.
As to `Clc1ccc(NCNC2Nc3ccccc3N2)cc1Cl`, the TGI is more than 100 µM.
In turn, `CCOc1cc2c(cc1OC)c[n+](C)c1c3cc(OC)c(OC)cc3ccc21` gave a TGI of more than 100 µM.
Take `CCN(CC)CCN1C(=O)C2C3C(C)=CC(OC(C)=O)(CC3C)C2C1=O` (configuration not stated): the GI50 is more than 100 µM and the TGI is more than 100 µM.
As to `CCOC(=O)c1ccc(-c2onc(C)c2Br)[nH]1`, the TGI was more than 100 µM.
In turn, `CC(Nc1cccc(Cl)c1)c1ccncc1` (configuration not stated) displayed a TGI of more than 100 µM.
Same read-out and setting: in the case of `O=C(c1ccccc1)c1nc2ccc(Cl)cc2cc1C(Br)Br` it was 1.24 µM; in that of `COc1ccc(-c2cc(=O)c3c(C)ccnc3[nH]2)cc1`, 90.4 µM; in that of `O=c1[nH]nc(-c2ccc3ccccc3c2)[nH]1`, more than 100 µM.
Same read-out and setting: in the case of `Cc1ccc(N=NC(=Nc2ccc(F)cc2)c2ccc(N(CCC#N)CCC#N)cc2)cc1` it was more than 100 µM; in that of `COc1cc(O)c2c(=O)c3cccc(C)c3[nH]c2c1`, more than 10 µM; in that of `Cc1c2ccccc2c(/C=N/NC(=O)CSCC(=O)N/N=C/c2c3ccccc3c(C)c3ccccc23)c2ccccc12`, 97.2 µM.
For the compound `O=S(=O)(O)c1cc(O)c(N=NC2S(=O)(=O)OCCOS2(=O)=O)c2ccccc12`, the TGI is more than 100 µM.
The same measure, in the same setting: in the case of `COC(=O)c1sc2nc(Nc3ccccc3)c(=Nc3ccccc3)sc2c1C` it was more than 100 µM.
Take `Clc1ccc2c(NCCCCNc3nc(N4CCOCC4)nc4ccccc34)ccnc2c1`: the GI50 is 3.69 µM and the TGI turned out to be 14.5 µM.
On to `CC(NC(=O)c1ccc(Cl)c(Cl)c1)c1ccc(-c2ccccc2)cc1` (configuration not stated), for which the TGI was more than 100 µM.
The compound `OC(c1ccccc1)c1c(-c2ccccc2)[nH]c(-c2ccccc2)c1C(O)c1ccccc1` (configuration not stated) came in with a TGI of 24.3 µM.
On the same count and under the same terms, in the case of `O=C(O)C1CCCN1` (configuration not stated) it was more than 100 µM; in that of `O=c1c(-c2cccc3ccccc23)c(-c2cccc3ccccc23)c1=O`, more than 100 µM.
On to `COCCn1c(Nc2ccc(C(=O)NO)cc2)nc2ccccc21`, for which the GI50 is 3.48 µM and the TGI was more than 100 µM.
The compound `CSC(=Nc1ccccc1)c1c(C)[nH]n(-c2ccccc2)c1=O` showed a TGI of more than 100 µM.
Still for that read-out and setting: in the case of `COc1ccc(/C=C2\C(=O)N(C(=O)c3ccc(NC(C)=O)cc3)N=C2C)cc1OC` it was more than 100 µM.
The same measure, in the same setting: in the case of `O=C(CN1CCCCC1)c1ccc2[nH]c(=O)oc2c1` it was more than 100 µM.
`CC(C)(C)c1ccc(O)c(C(O)c2ccccn2)c1` (configuration not stated) yielded a TGI of more than 100 µM.
As to `CCCCCOC(=O)c1c(C)[nH]c(/C=C2\N=C(c3ccc[nH]3)C=C2OC)c1C`, the GI50 was 0.0709 µM and the TGI turned out to be 3.48 µM.
As to `CCOC(=O)c1nc2ccccc2nc1Nc1cc(OC)c(OC)c(OC)c1`, the TGI was more than 100 µM.
On the same count and under the same terms, to `CCCCOC(=O)Nc1ccc(S(=O)(=O)Nc2c(Cl)cccc2Cl)cc1` belongs more than 100 µM.
On to `CN1CCN(c2ccc3nc(-c4[nH]ncc4Nc4ncnc5[nH]ccc45)[nH]c3c2)CC1`, for which the GI50 was 0.322 µM and the TGI amounted to 2.59 µM.
The corresponding values for `COc1ccc2c(c1)c(-c1ccc(-c3cn(C)c4ccc(OC)cc34)s1)cn2C` are more than 100 µM and more than 100 µM.
